Several values for one entry are separate records, joined by “and”; a condition that tells them apart may be missing. Identical values can stand only once. The campaign covered roughly 340,000 compounds. About 12,000 (3.5%) were called active. The shares of active, inactive and inconclusive entries below differ from those in the screen. Calls come from the whole dose curve; as a rule, active = well fitted inhibition curve with a large enough effect; inconclusive = small, poorly fitted or top-dose-only effect, or another doubt; inactive = no such curve, though single readings can be large or run the other way. Potencies of inconclusive entries are doubtful fits and often do not repeat. A structure can be active in one record and inactive in another.
Assay: qHTS Assay for Inhibitors of Hepatitis C Virus (HCV)
Conditions: Huh7.5.1 HCVcc-Cre (HCVcc is cell-culture hepatitis C virus) infection, luciferase reporter, 44 h; series mostly up to 41.8 µM
How it was run: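 HCVcc-Cre virus at an moi near 0.5 was added right after compound to cells cultured 4 h from seeding (1,000 cells/well). Luciferase activity was determined 44 h later, 15 min after substrate addition at RT.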
Potency is the fitted concentration of half-maximal effect; tags give direction and shape of the fitted curve.

| Structure (SMILES) | Potency |
| --- | --- |
| COc1cc(CN2CCN(C(=O)c3ccc(-c4ccccc4)cc3)CC2)cc(OC)c1OC | inconclusive: 8.91 µM [inhibitor, partial curve] |
| CC(=O)N1CC(=O)Nc2ccc(Br)cc2C1c1ccc(F)cc1 (stereo not drawn) | inactive |
| COc1ccc(CNC(=O)Cn2cnc3c(NCc4ccccc4)ncnc32)cc1 | inactive |
| Fc1ccc(NC(=S)Nc2cccc(Cl)c2)cc1 | inconclusive: 31.6 µM [inhibitor, single point] |
| O=C(Nc1ccon1)c1cc2c(s1)CCCCCC2 | inconclusive: 20 µM [inhibitor, single point] |
| CCOc1ccc(CCNC(=O)C2CCCN(S(=O)(=O)c3c(C)n[nH]c3C)C2)cc1OCC (stereo not drawn) | inconclusive: 2.51 µM [inhibitor, full curve, poor fit] |
| Cc1nn(C)c(C)c1/C=C/C(=O)c1cccs1 | inconclusive: 11.2 µM [inhibitor, partial curve] |
| COc1cc(/C=C(/C#N)c2ccccc2)ccc1Oc1ccc([N+](=O)[O-])cn1 | inconclusive: 1.58 µM [inhibitor, partial curve] |
| COc1ccc(C(=O)N/C(=C\c2ccc3c(c2)OCO3)C(=O)N2CCOCC2)cc1 | inactive |
| Cc1ccc(OCc2nnc(SCC(=O)c3cccs3)n2-c2ccccc2)cc1C | inconclusive: 31.6 µM [inhibitor, single point] |
| CC(=O)N1c2ccc(S(=O)(=O)N3CCCC(C(=O)N4CCC(C)CC4)C3)cc2CC1C (stereo not drawn) | active: 11.2 µM |
| O=C(c1ccc(-c2cc3ccccc3oc2=O)cc1)N1CCN(c2ccc(Cl)cc2[N+](=O)[O-])CC1 | active: 10 µM |
| Nc1c(C(O)(C(F)(F)F)C(F)(F)F)cc(C(O)(C(F)(F)F)C(F)(F)F)c2ccccc12 | inconclusive: 10 µM [inhibitor, partial curve] |
| CC(C)CNC(=O)c1cccc(NC(=O)COc2ccc([N+](=O)[O-])cc2)c1 | inconclusive: 10 µM [inhibitor, partial curve] |
| Cc1nc(-c2ccc(F)cc2)c(CC(=O)Nc2cc(S(=O)(=O)N3CCCCC3)ccc2C)s1 | inactive |
| CC(C)[C@H](NC(=O)OC(C)(C)C)c1nnc(S(=O)(=O)Cc2c(F)cccc2Cl)o1 | inconclusive: 31.6 µM [inhibitor, single point] and inconclusive: 28.2 µM [inhibitor, single point] |
| O=C(CSc1nc2cc(Cl)c(Cl)cc2[nH]1)c1ccc2c(c1)OCO2 | inactive |
| Cc1cc2c(NC(=O)Nc3ccc(C(F)(F)F)cc3)cccc2nn1 | inactive |
| CC(=O)OCCNc1cc(Sc2nc3ccccc3[nH]2)c2nonc2c1[N+](=O)[O-] | inconclusive: 31.6 µM [inhibitor, single point] |
| C=CCOc1c(CNc2ccc(C(=O)O)cc2)cccc1OCC | inactive |
| CC(C)CC(=O)Nc1cccc(-c2nc3ccccc3o2)c1 | inconclusive: 12.6 µM [inhibitor, partial curve] |
| O=[N+]([O-])c1ccc(C=Nc2cccc3ccccc23)s1 | inconclusive: 31.6 µM [inhibitor, single point] |
| COc1ccc(-c2noc(CN(C)Cc3ccccc3)n2)c(OC)c1OC | inconclusive: 20 µM [inhibitor, single point] |
| Cc1ccc(-c2nn(Cc3ccccc3)cc2C(=O)NCC2CCCO2)cc1 (stereo not drawn) | inconclusive: 5.62 µM [inhibitor, single point] |
| CCOc1ccccc1/C=N/Nc1ccccc1[N+](=O)[O-] | inconclusive: 10 µM [inhibitor, partial curve] |

| Structure (SMILES) | Potency |
| --- | --- |
| Cc1cccc(C(=O)NCCC(=O)Nc2ccc(C#N)cc2)c1 | inactive |
| CCC(SC1=Nc2ccccc2C2=NC(CC(C)C)C(=O)N12)C(=O)Nc1ccc2c(c1)OCO2 (stereo not drawn) | active: 8.91 µM |
| CCCn1c(=O)c(C(=O)Nc2ccccc2C)c(O)c2ccccc21 | inconclusive: 2.24 µM [inhibitor, full curve] |
| COc1ccc(C2C=C(c3ccc(C)c(C)c3)Nc3ncnn32)c(OC)c1OC (stereo not drawn) | inconclusive: 22.4 µM [inhibitor, single point] |
| O=C(c1cnc(-c2ccc(Cl)cc2)s1)c1ccc(Cl)cc1Cl | inconclusive: 8.91 µM [inhibitor, partial curve] |
| CCN(CC)c1nc2ccccc2n2cnnc12 | inconclusive: 31.6 µM [inhibitor, single point] |
| CCN1CCN(c2ccc(S(=O)(=O)N3CCOCC3)cc2NC(=O)c2ccc(OCC(C)C)cc2)CC1 | inconclusive: 7.08 µM [inhibitor, partial curve] |
| CCOC(=O)c1c(NC(=O)C(C)Sc2c[nH]c3ccccc23)sc2c1CCC2 (stereo not drawn) | active: 11.2 µM |
| O=C1N=C(N2CCCC2)CN1c1ccccc1 | inactive |
| CCOC(=O)N1CCN(C(=O)c2ccc3c(c2)NC(=O)/C(=C\c2cccc(C)c2)S3)CC1 | inconclusive: 15.8 µM [inhibitor, partial curve] |
| Cc1ccc(N2C(=O)c3ccccc3C2Nc2ccccc2F)nc1 (stereo not drawn) | inconclusive: 10 µM [inhibitor, partial curve] |
| Cc1ccc(NC(=O)CNCc2ccccc2)c(Br)c1 | inactive |
| O=c1c(-c2nc3ccccc3s2)cccn1Cc1ccc(Cl)c(Cl)c1 | inconclusive: 15.8 µM [inhibitor, single point] |
| CC(C)c1nnc(NC(=O)c2nc(S(=O)(=O)Cc3ccccc3F)ncc2Cl)s1 | inconclusive: 20 µM [inhibitor, single point] |
| CCOc1ccc(-n2nnc3c(=O)n(CC(=O)Nc4cc(C)on4)cnc32)cc1 | inconclusive: 10 µM [inhibitor, partial curve] |
| CCOc1ccc(-c2cccc(NC(=O)COc3ccc(Cl)cc3)c2)nn1 | inconclusive: 17.8 µM [inhibitor, partial curve, poor fit] |
| O=C(Cn1cnc2ccccc21)Nc1ccc(SC(F)F)cc1 | active: 8.91 µM |
| CCOC(=O)C1CCCN(C(=O)c2ccc3c(=O)n(Cc4ccccc4OC)c(=S)[nH]c3c2)C1 (stereo not drawn) | inconclusive: 14.1 µM [inhibitor, single point] |
| COc1ccc(-c2noc(CCCC(=O)NCC3CCCO3)n2)cc1 (stereo not drawn) | inactive |
| COc1ccc(C)cc1NC(=O)c1nn(-c2ccccc2)cc1OC | active: 7.08 µM |
| CC1=NN(c2nc3ccccc3[nH]2)C(=O)C1Cc1ccccc1 (stereo not drawn) | active: 3.55 µM |
| COc1ccccc1Nc1c2c(nc3ccccc13)CCC2 | inconclusive: 14.1 µM [inhibitor, single point] |
| FC(F)(F)c1cc(CCN2CCNC[C@@H]2CC2CCCCC2)cc(C(F)(F)F)c1 | inconclusive: 6.31 µM [inhibitor, partial curve] |
| COc1ccc2oc(-c3ccccc3)c(C(=O)N(C)C)c2c1 | inactive |
| O=C(NNC(=O)c1ccccc1[N+](=O)[O-])c1ccccc1[N+](=O)[O-] | inactive |

| Structure (SMILES) | Potency |
| --- | --- |
| O=C(Nc1ccc(NC(=O)c2cccs2)cc1)c1ccc2c(c1)OCO2 | inconclusive: 31.6 µM [inhibitor, single point] |
| COc1ccc(CCNCC(O)COc2ccc(OC)cc2C(C)(C)C)cc1 (stereo not drawn) | inconclusive: 22.4 µM [inhibitor, single point] |
| COc1ccc(-c2noc(N3CCC(C(=O)Nc4ccccc4Cl)CC3)n2)cc1 | inactive |
| N#Cc1ccccc1OCC(=O)OCC(=O)NC1CCS(=O)(=O)C1 (stereo not drawn) | inactive |
| CCOc1ccc(C(=O)Nc2ccccc2NC(C)=O)cc1OCC | inactive |
| CC(=O)Nc1ccc(NC(=O)C(C)OC(=O)c2ccc3ccccc3n2)cc1 (stereo not drawn) | inactive |
| CCO[C@H]1OC(C(=O)O)=C[C@@H](c2ccccc2)[C@@H]1CCCO | inactive |
| O=C(COc1ccccc1Cl)N1CCCC(N2CCN(c3ccc(F)cc3)CC2)C1 (stereo not drawn) | inconclusive: 10 µM [inhibitor, partial curve] |
| NS(=O)(=O)c1ccc(CCNC(=O)Nc2ccc(Cl)cc2)cc1 | inconclusive: 10 µM [inhibitor, partial curve] |
| CCOC(=O)c1c(C)n(-c2ccc(F)cc2)c2ccc(O)cc12 | active: 8.91 µM |
| CN(CCO)c1ccc(-c2nn(C)c(=O)c3ccccc23)cc1[N+](=O)[O-] | inactive |
| Cc1ccc(-c2ccc(/C=N/n3cnnc3)o2)cc1Cl | inconclusive: 11.2 µM [inhibitor, single point] |
| Cc1sc2ncn(CC(=O)N3CCN(c4ccccc4)CC3)c(=O)c2c1S(=O)(=O)N1CCOCC1 | inactive |
| COCCCn1c(=O)c2sccc2n2c(CCCC(=O)N(C)Cc3ccco3)nnc12 | inactive |
| Cc1ccccc1NC(=O)CN1C(=O)N/C(=C\c2ccc(N3CCOCC3)c(F)c2)C1=O | inactive |
| O=C(Nc1nc2c(s1)CCCC2)c1cc(-c2ccccc2)nc2ccccc12 | inconclusive: 35.5 µM [inhibitor, partial curve] |
| COc1ccc2c(c1)NC(=O)CC(c1ccccc1)=N2 | inconclusive: 31.6 µM [inhibitor, single point] |
| O=C(O)c1cc(O)ccc1NC(=O)c1cccc2ccccc12 | inactive |
| COc1ccc(OC)c2c(C)c(C)[nH]c12 | active: 10 µM |
| CCOC(=O)c1c(C)[nH]c2cc(Br)c(OC)cc12 | active: 5.62 µM |
| Cc1cccc(-n2ncc3c2CCCC3NC(=O)C2(C(N)=O)CC2)c1C (stereo not drawn) | active: 1.58 µM |
| O=C(CCCc1ccccc1)c1ccc2c(c1)OCCO2 | inactive |
| C[C@@H]1CCC(=O)N(CC[C@H](Sc2ccc(Br)cc2)c2ccccc2)CC1 | inconclusive: 7.94 µM [inhibitor, partial curve] |
